The target of one test is T1, 3HA-MyoD Cter 241-318 (UniProt P10085).
T1 sequence: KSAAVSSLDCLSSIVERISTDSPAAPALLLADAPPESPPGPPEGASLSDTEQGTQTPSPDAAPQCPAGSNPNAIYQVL
Description: co-IP; HEK 293 co-transfected with pCMV-3HA-MyoD or a deletion mutant, pcDNA3-Runx1 and pcDNA3-CBFβ; lysis 48 h later in 300 mM NaCl, 50 mM Tris-HCl pH 7.5, 0.4% NP-40, 10 mM MgCl2; anti-HA IP; western blot. On the technique in general: A western blot detects proteins with antibodies after separation by electrophoresis.

Amino acid sequences for entries named in this document (tags omitted).
UniProt Q08024: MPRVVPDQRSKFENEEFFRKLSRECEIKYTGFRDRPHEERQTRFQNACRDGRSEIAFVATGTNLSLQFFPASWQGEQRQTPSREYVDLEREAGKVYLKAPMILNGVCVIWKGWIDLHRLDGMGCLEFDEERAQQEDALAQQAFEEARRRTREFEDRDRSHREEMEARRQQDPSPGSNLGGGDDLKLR
UniProt Q01196: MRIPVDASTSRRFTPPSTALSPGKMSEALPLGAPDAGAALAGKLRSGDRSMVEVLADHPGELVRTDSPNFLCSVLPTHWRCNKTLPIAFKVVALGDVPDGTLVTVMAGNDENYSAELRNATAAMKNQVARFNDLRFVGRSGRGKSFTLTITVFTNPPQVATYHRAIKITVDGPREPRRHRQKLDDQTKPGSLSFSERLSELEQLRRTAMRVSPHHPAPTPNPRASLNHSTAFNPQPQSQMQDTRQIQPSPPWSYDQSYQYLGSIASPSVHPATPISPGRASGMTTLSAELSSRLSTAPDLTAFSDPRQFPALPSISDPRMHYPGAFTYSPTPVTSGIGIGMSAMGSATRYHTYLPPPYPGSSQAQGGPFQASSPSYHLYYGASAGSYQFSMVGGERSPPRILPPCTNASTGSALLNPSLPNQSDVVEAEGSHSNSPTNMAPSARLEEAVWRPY
UniProt Q03347: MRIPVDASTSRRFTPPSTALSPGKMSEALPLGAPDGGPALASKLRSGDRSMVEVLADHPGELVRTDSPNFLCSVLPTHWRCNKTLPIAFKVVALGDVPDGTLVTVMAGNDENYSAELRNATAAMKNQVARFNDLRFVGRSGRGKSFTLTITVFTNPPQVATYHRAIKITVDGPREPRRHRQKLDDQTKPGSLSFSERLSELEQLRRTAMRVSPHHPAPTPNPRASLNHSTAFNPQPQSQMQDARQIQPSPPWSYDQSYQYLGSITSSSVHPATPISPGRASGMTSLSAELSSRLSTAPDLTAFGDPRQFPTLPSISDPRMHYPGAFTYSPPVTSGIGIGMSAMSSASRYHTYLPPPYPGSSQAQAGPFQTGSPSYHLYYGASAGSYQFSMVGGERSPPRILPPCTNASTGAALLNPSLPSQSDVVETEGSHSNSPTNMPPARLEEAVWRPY
UniProt P08659: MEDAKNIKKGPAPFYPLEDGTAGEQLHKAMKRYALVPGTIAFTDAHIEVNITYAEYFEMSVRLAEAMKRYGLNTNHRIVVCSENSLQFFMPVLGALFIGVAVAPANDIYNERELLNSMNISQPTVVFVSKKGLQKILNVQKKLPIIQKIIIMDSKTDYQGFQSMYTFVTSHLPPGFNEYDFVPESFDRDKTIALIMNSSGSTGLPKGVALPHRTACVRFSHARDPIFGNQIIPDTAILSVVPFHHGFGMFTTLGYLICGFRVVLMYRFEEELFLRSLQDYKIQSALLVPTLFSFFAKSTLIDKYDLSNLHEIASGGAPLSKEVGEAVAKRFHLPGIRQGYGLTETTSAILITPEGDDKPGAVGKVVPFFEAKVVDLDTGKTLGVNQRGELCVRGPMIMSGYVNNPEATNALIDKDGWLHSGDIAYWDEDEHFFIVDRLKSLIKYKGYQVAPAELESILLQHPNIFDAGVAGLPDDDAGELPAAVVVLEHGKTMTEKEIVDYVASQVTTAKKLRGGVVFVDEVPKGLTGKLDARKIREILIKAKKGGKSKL
UniProt P83917: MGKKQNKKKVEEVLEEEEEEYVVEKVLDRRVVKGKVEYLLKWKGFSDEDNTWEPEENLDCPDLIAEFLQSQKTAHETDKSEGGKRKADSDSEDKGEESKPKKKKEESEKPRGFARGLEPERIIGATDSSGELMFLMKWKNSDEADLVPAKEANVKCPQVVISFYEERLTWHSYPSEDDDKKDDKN
UniProt O09106: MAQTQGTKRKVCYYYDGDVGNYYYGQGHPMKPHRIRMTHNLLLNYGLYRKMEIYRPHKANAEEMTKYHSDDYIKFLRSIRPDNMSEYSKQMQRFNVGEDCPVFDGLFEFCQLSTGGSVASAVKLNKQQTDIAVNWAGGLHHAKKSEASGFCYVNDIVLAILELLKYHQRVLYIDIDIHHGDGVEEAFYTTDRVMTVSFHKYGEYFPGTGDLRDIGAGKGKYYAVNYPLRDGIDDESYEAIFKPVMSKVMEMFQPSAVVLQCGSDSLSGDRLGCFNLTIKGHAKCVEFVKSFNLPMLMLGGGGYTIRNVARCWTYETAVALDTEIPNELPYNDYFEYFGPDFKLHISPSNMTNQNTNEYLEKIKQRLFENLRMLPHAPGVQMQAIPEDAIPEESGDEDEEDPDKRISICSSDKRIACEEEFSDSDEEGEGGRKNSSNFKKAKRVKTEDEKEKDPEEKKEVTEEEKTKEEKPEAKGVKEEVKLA
UniProt P70288: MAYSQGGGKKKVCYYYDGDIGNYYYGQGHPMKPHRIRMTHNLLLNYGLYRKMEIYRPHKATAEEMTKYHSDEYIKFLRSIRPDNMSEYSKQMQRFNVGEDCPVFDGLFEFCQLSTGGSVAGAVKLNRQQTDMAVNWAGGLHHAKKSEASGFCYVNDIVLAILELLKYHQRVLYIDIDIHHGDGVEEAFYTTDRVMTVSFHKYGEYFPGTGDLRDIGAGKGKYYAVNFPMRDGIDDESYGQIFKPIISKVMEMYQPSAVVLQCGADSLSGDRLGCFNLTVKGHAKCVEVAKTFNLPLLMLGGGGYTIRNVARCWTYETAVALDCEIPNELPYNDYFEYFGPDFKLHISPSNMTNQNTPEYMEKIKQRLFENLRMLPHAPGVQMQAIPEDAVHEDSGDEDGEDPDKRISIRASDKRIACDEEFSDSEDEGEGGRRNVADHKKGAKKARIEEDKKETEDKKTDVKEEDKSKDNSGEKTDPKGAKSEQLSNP

Test [1] addresses 3HA-MyoD wild-type (pCMV-3HA-MyoD) (UniProt P10085). Described as above.
The next test deals with 3HA-MyoD bHLH 82-172 (UniProt P10085). The test is described as above.
The next test concerns the target T2, 3HA-MyoD Nter 1-66 (UniProt P10085).
T2 sequence: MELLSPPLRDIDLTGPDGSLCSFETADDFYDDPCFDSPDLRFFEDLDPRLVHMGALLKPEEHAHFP
Described as above.

The next test addresses 3HA-MyoD ΔNter 82-318 (UniProt P10085). The test is described as above.
For a further test, the target named is 3HA-MyoD ΔCter 1-240 (UniProt P10085). Described as above.
The target of test [2] is Flag-HA-CBFβ (stably expressed in C2C12) (mouse) (UniProt Q08024). Description: co-IP; simple-affinity purification on Flag resin of Flag-HA-CBFβ from proliferating C2C12-CBFβ cells (3 g pellet) against C2C12 control cells; western blot.
Test [3] has as its target T3, Myf5 (endogenous, C2C12) (mouse (endogenous in C2C12)) (UniProt P24699).
T3 sequence: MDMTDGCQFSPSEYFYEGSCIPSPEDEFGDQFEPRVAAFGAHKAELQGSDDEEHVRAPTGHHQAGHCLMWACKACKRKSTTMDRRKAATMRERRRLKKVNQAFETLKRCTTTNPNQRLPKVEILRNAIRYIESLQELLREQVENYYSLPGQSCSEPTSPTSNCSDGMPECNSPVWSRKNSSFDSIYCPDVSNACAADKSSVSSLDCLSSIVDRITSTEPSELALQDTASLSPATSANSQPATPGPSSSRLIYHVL
The test is described as follows: co-IP; endogenous proteins, nuclear extracts of proliferating C2C12 myoblasts (compared with differentiating ones); IP with anti-MyoD or anti-Myf5, beads or normal rabbit IgG as controls; western blot for CBFβ.

The target of a further test is GST-MyoD (UniProt P10085). Description: pull-down; GST or GST-MyoD (1 µg) on agarose beads with 10 µL of one 35S-labelled TNT reaction; 50 mM Tris pH 7.6, 150 mM NaCl, 0.1% Triton, 2 h 4°C; washes 300 mM NaCl, 0.5% Triton; autoradiography; only the target purified.
The next test concerns the target Flag-HA-MyoD (UniProt P10085). The test is described as follows: co-IP; double-affinity purified Flag-HA-MyoD complex from HeLa (soluble and chromatin-associated fractions) against mock eluate, western blot.
In test [4] the target is Flag-HA-CBFβ (stably expressed in HeLa) (mouse) (UniProt Q08024). Description: co-IP; Flag M2 resin IP of Flag-HA-CBFβ from 1.5 mg nuclear extract of HeLa-CBFβ cells 24 h after transfection of HA-MyoD and/or HA-Runx1; overnight 4°C; washes in TEGN (150 mM NaCl, 0.5% NP-40); Flag peptide elution; anti-HA western blot.

Eleven substances from PMC2828485 can be followed below.

These are yes or no findings as the source states them, for the method shown. Binding seen in cells or lysates may run through a third protein. Some binding calls cover weakened binding; strength is not graded here.

For “Runx1 (pcDNA3-Runx1, expressed in HEK 293) (from UniProt Q01196 1-453)”, the binding entry with 3HA-MyoD Cter 241-318 is reported as “no binding”; in test [1], “binds”; with 3HA-MyoD bHLH 82-172, “no binding”; in the test with 3HA-MyoD Nter 1-66, “no binding”; with 3HA-MyoD ΔNter 82-318 it was “binds”; with 3HA-MyoD ΔCter 1-240 it was “no binding”.
For the substance “Runx1 (endogenous, C2C12) (from UniProt Q03347 1-451)”, the binding result in [2] is “binds”.
Consider “CBFβ (endogenous, C2C12) (from UniProt Q08024 1-187)”, for which, in test [3], the binding result is reported as “binds”.
Consider “luciferase (in vitro translated) (from UniProt P08659 1-550) (enzyme)”, for which the binding result with GST-MyoD is “no binding”.
For “Runx1 (endogenous, HeLa) (from UniProt Q01196 1-453)”, the binding result with Flag-HA-MyoD is reported as “binds”.
Consider “HP1β (endogenous, C2C12) (from UniProt P83917 1-185)”, for which, in test [2], the binding entry is recorded as “binds”.
Regarding “Runx1 (in vitro translated from pcDNA3-Runx1) (from UniProt Q01196 1-453)”, the binding result with GST-MyoD was “binds”.
With “HDAC1 (endogenous, C2C12) (from UniProt O09106 1-482) (enzyme)”, the binding entry in test [2] is on record as “binds”.
Consider “CBFβ (pcDNA3-CBFβ, expressed in HEK 293) (from UniProt Q08024 1-187)”, for which the binding entry in the test with 3HA-MyoD Cter 241-318, in the test with 3HA-MyoD bHLH 82-172, with 3HA-MyoD Nter 1-66 and with 3HA-MyoD ΔCter 1-240 was “no binding” in each case.
For the substance “HDAC2 (endogenous, C2C12) (from UniProt P70288 1-488) (enzyme)”, the binding result in test [2] is “binds”.
With “HA-tagged Runx1 (pRcCMV-HA-Runx1) (from UniProt Q01196 1-453)”, the binding result in test [4] is “binds”.
